# Test results from the supplement of paper PMC3334620.
# The full ranking holds about 33,000 sequences; the median of “E-score (-0.5 to 0.5)” is about -0.012, and the highest 2% start at about 0.27. The list shows a part of the results.
# Molecular target: T1, Vhr1 (UniProt P40522)
# T1 sequence: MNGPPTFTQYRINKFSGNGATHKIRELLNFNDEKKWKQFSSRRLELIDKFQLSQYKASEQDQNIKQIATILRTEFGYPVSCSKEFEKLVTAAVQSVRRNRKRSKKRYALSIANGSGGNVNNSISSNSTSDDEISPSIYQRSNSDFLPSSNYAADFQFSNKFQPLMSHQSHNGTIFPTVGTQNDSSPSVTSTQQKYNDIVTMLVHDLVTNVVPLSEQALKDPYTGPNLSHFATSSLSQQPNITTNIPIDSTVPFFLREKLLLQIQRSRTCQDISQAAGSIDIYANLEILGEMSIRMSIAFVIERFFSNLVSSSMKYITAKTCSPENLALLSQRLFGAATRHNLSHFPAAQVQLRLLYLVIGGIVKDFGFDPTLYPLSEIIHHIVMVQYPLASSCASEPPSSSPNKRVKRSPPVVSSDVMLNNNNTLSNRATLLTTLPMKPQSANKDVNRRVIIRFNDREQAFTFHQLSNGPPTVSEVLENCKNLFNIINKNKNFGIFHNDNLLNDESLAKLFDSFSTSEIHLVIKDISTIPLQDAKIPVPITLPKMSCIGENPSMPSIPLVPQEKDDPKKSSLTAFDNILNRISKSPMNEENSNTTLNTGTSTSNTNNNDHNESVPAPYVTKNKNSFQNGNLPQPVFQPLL
# Assay: PBM E-score (8-mer binding enrichment) (E-score (-0.5 to 0.5)); higher = stronger / more preferred TF binding; most listed sequences are background and not binding sites
# Conditions: protein concentration: 200 nM; construct: GST-full length
# Procedure, shortened: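 Each ungapped eight-base word and its reverse complement, pooled, received an E-score from the Universal PBM Analysis Suite. Underlying scans, normalised with masliner, recorded fluorescent anti-GST bound to GST-tagged yeast transcription factors. These were applied at about 100-200 nM to universal all-10-mer Agilent arrays double-stranded by primer extension.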
row,Sequence,PBM E-score
1,ATTGCAAA,-0.0581
2,CGTTAATA,0.0862
3,ATTAAGTA,-0.0497
4,GGGACAAC,-0.119
5,CGGTTAGC,-0.161
6,TATGACAA,0.0461
7,CAATCAGG,0.0706
8,GCCGGCCC,-0.0467
9,GACTGTCC,0.0278
10,CAAGCTTA,-0.0834
11,GGGAAAAC,-0.167
12,ACATCTGC,0.0724
13,GGTGTCGA,0.249
14,CTGAGGAC,-0.209
15,ATCGAACG,-0.0108
16,AAATATGA,0.247
17,ATGACGCC,-0.145
18,ACCTACCT,-0.0343
19,CACGGTTC,0.0342
20,CCGAATTA,-0.188
21,AAGCACCC,-0.2
22,CATAATCC,0.105
23,AGAACAGG,-0.121
24,TTGTTAAA,-0.23
25,GCGCAGTA,-0.0752

row,Sequence,PBM E-score
1,GATCGTCC,-0.0174
2,ACTACGTC,-0.0905
3,CTTGCCCC,-0.215
4,ATATCTTC,0.11
5,GAATGGGA,-0.109
6,AAGGAAAA,-0.11
7,CCAGTATC,0.0224
8,AAGGCGGC,-0.0722
9,AGGGCAAT,-0.095
10,ACAACGCG,0.0626
11,GAGTGTAA,0.0325
12,AGGGAACC,0.0115
13,CGATCCTA,-0.0309
14,GAGCTCGC,0.114
15,ACCAGATC,0.0548
16,CATGACCA,0.138
17,ATAATCAT,0.389
18,CCCGTGCG,0.111
19,GGCTAGCA,-0.0392
20,AACTTAAT,-0.0399
21,ACATAGTA,0.188
22,AACATATG,-0.0364
23,AGGGTAAA,-0.0504
24,CCAATCAA,-0.0986
25,CTATGCGA,-0.00889

row,Sequence,PBM E-score
1,CCTTGAGA,-0.0758
2,CCCCACTA,0.0338
3,CAGCATAC,-0.0578
4,GGGAATGA,0.169
5,GAGGTGCC,-0.276
6,GCCACTTA,-0.0276
7,ATCTATTG,0.0986
8,TACGACTA,0.263
9,AGACGCGG,-0.0378
10,GAGTTACC,0.103
11,ACGGTTCA,-0.0333
12,ACGGGCTC,-0.214
13,AGGCACAA,-0.141
14,AGAGATCT,-0.0304
15,GAACCGTC,-0.0732
16,CAGAGCTC,-0.281
17,GCGCGACA,0.061
18,GCACCAAC,0.0192
19,TACGAACA,-0.0104
20,AAGCCTCT,-0.177
21,AAGGTGAG,0.00362
22,AAGCTGCA,-0.00033
23,CAAATTGA,-0.124
24,CCCGCAAC,0.077
25,TAGATGAA,-0.0839

row,Sequence,PBM E-score
1,ACGCTAGT,-0.0378
2,CGGTGGCC,0.0237
3,AAAAACTG,-0.193
4,CGGCAGGA,-0.297
5,GAGGCTAA,-0.136
6,CAACCTCA,-0.126
7,CGGAAGAA,-0.183
8,CTACTGCC,-0.196
9,GCCCTTGA,-0.129
10,CCTTGTGA,0.0709
11,CGCTGCCC,-0.106
12,CGGTTTCA,-0.0806
13,CAAGGTGG,-0.00342
14,CACAACGA,0.152
15,CAGTGCCG,0.00143
16,GCAGATTA,0.0608
17,AATTATTC,-0.0201
18,CGGGGTAG,0.0237
19,AGCTAAGG,-0.398
20,ACCACCAC,0.11
21,AGAAATTC,-0.218
22,AAATCGCA,0.0184
23,GGAGAACA,-0.207
24,CAAACCTG,0.0222
25,CTAGCAAG,-0.00438

row,Sequence,PBM E-score
1,CAGAGAGA,-0.0432
2,ATAACTGG,0.0653
3,GAAGGAGA,-0.121
4,AAATCCAA,-0.187
5,ATGGAGGA,-0.178
6,AGGGCGCA,-0.15
7,CTGAGCGA,0.00953
8,GAGGCCTA,-0.192
9,CACGTATC,0.0903
10,CAGGGTCA,0.00801
11,ACAATCCG,-0.0094
12,GGTAAAAC,-0.133
13,GAGTCAGA,0.447
14,AACTCCGA,0.115
15,ACTAACAG,0.215
16,CCAATTAA,0.0339
17,AAAAACGG,-0.0925
18,AGTGTTAA,0.0169
19,AGAGGAAA,-0.174
20,CTGTAGAA,-0.0903
21,AGGACAAT,-0.13
22,ATGCATTA,0.116
23,GATAGCAA,0.232
24,ACTGAGCC,0.219
25,CCGTTATA,-0.106

row,Sequence,PBM E-score
1,ACACAGAG,0.074
2,AGTCTGAA,-0.0023
3,ACGCCTTG,-0.0936
4,AAAGCTTT,-0.268
5,AAAACAGT,0.129
6,ACAGCCCG,-0.0318
7,ATAGTCTC,0.228
8,ACTCAGAC,0.194
9,AGTACGGA,0.173
10,CAATAAAA,-0.0423
11,CCGGCTGC,0.194
12,AATCTCTG,-0.00409
13,AGAGAGAA,-0.153
14,AAAAGGCC,-0.133
15,CTGATGGA,0.0738
16,GGACAAAC,-0.062
17,ATCAATGC,0.0623
18,AACATCCA,0.1
19,ATAGCCAG,-0.163
20,GAAAAGGA,-0.152
21,AATAACAC,0.256
22,GACCAAGC,-0.053
23,AAACCCAG,0.00438
24,ACATCAAC,0.136
25,CCACCAAG,-0.0323

row,Sequence,PBM E-score
1,ATGGAAAA,-0.152
2,ACCTCCAA,-0.0631
3,ACGGGTCA,-0.077
4,CCTGATCG,0.0235
5,TCCTGCCA,-0.156
6,GAGCTAAA,-0.197
7,AAATTGAT,-0.0358
8,ATTTGTGA,0.0868
9,AGGGACCT,-0.161
10,ATGATCTG,0.0935
11,AAATACAT,-0.011
12,ACAACTGC,-0.0534
13,CCAAAGTA,0.0574
14,AGGCTGAG,-0.0574
15,CAAACCAC,0.0402
16,ACATCAAT,0.149
17,GAAGTTAA,-0.253
18,CAACATCC,0.044
19,CGACAAGC,0.0866
20,CGCTGTGC,0.0456
21,CCGGGAGC,-0.0514
22,GGATAACA,-0.101
